Values of other authors, collected in publication PMC9502701 (Molecules, 2022).

System: influenza NA
Conditions: cited from earlier work

Row | SMILES | NA inhibitory activity (in words), compared with positive control apigenin | influenza NA inhibitory activity (in words)
1 | O=C(/C=C/c1ccc(O)c(O)c1)O[C@@H]1[C@H](O)C[C@@](O)(C(=O)O)C[C@H]1OC(=O)/C=C/c1ccc(O)c(O)c1 [4,5-Di-O-caffeoylquinic acid] | superior | 
2 | O=C(/C=C/c1ccc(O)c(O)c1)O[C@@H]1C[C@](O)(C(=O)O)C[C@@H](O)[C@H]1O [Chlorogenic acid, chlorogenic acid] | superior | 
3 | O=C(/C=C/c1ccc(O)c(O)c1)O[C@H]1[C@H](O)C[C@](O)(C(=O)O)C[C@H]1O [Cryptochlorogenic acid, cryptochlorogenic acid] | superior | 
4 | O=C(/C=C/c1ccc(O)c(O)c1)O[C@@H]1C[C@@](O)(C(=O)O)C[C@@H](O)[C@@H]1O [Neochlorogenic acid, neochlorogenic acid] | superior | 
5 | C=C[C@H]1[C@H](O[C@@H]2O[C@H](CO)[C@@H](O)[C@H](O)[C@H]2O)OC=C(C(=O)OC)[C@H]1CC(=O)O [Secoxyloganin, secoxyloganin] |  | weak
6 | C=C[C@H]1[C@H](O[C@@H]2O[C@H](CO)[C@@H](O)[C@H](O)[C@H]2O)OC=C2C(=O)OCC[C@H]21 [Sweroside, sweroside] |  | weak
